# According to publication PMC9691689, “Uptake mechanism of iron-phytosiderophore from the soil based on the structure of yellow stripe transporter” (Nature Communications, 2022):
# Biological target: the molecule itself
# Test: SEC; Superdex 200 10/300 GL; 20 mM HEPES pH 7.5, 150 mM NaCl, 0.001% LMNG, 0.0002% CHS; protein purified with CHS throughout
protein,measurement,value
"HvYS1 K673C (natural protein, Yellow stripe 1 (YS1) iron-phytosiderophore transporter of barley (Hordeum vulgare L.) with a cysteine at Lys673 in the middle of strand S1; source: Sf9 insect cells (baculovirus), purified in the same manner as the wild type, with or without CHS) not shown",stoichiometry N,2
